The shares of active, inactive and inconclusive entries below differ from those in the screen. No potency is given beside an inconclusive call; the fits are too rough. Active and inactive are the calls of the source. Calls follow the shape of the dose curve; as a rule, active = well fitted curve in the direction sought with a large enough effect; inconclusive = small, poorly fitted or top-dose-only effect, or another doubt; inactive = no such curve, though single readings can be large; an effect the other way counts as inactive or inconclusive.
Assays:
[1] = biological target: ATPase family AAA domain-containing protein 5 (Homo sapiens) (UniProt Q96QE3); assay: HTS assay for small molecules that inhibit ELG1-dependent DNA repair in human embryonic kidney (HEK293T) cells expressing luciferase-tagged ELG1: Hit Confirmation (AID 624248); details: HEK293T ELG1-luciferase levels, luminescence, cells co-treated with 5-fluorouridine; series mostly up to 46.1 µM; also: nearly all actives have a fitted effect of over 55% in size
Chain of UniProt Q96QE3 (Q96QE3 whole entry, looked up, the tested form may be a part): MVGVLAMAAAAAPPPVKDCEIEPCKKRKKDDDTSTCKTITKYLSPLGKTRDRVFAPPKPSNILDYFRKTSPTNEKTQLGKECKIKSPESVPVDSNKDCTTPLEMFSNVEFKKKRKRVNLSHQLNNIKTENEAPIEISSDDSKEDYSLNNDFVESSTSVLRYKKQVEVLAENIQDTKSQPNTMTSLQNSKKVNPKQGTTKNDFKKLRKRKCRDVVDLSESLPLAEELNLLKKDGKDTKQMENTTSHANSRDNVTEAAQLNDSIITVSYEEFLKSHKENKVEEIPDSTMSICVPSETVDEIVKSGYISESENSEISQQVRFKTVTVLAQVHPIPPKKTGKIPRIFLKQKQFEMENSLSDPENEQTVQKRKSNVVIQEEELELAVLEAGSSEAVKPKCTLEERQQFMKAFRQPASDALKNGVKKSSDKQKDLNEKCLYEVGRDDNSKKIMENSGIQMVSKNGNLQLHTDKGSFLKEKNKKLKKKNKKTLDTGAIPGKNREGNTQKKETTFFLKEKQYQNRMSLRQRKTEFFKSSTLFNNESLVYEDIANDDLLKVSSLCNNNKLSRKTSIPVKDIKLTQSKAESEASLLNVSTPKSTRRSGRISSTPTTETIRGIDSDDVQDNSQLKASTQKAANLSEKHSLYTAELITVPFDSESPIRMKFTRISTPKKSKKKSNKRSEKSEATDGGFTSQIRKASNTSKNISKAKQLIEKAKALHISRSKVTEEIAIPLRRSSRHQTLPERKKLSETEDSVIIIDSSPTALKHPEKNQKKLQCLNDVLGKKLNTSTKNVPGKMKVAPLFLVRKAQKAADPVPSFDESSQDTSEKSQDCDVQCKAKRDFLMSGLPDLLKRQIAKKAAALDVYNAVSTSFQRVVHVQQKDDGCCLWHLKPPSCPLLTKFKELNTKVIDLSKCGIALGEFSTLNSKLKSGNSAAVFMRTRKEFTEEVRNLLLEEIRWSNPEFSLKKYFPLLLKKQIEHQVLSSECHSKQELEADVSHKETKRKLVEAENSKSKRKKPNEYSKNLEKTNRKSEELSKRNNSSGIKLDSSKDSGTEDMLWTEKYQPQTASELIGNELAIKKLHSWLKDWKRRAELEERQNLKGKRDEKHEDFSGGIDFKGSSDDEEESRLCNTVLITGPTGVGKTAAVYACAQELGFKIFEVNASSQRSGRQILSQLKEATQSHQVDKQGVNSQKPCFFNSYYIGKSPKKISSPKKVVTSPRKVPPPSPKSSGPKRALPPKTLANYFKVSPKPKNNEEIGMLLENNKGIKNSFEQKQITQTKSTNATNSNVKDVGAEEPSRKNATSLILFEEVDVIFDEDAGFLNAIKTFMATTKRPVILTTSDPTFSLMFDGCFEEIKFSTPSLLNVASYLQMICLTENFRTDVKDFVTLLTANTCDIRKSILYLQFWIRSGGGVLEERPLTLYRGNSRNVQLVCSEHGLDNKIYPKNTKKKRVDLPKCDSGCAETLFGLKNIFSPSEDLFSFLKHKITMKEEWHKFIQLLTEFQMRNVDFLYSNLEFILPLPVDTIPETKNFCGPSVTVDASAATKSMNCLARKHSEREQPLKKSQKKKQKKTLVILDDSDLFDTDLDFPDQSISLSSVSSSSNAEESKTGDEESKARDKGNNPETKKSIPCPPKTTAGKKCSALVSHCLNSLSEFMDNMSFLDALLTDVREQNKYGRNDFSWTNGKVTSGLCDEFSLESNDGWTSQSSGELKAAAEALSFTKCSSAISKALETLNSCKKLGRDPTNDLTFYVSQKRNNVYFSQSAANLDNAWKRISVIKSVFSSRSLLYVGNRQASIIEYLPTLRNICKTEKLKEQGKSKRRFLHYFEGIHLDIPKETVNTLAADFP
Outline: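 Cells (2,000/well) received 5-Fluorouridine plus pin-transferred compound or DMSO and were incubated 16 hr at 37 °C, 5% CO2. Luciferase activity was read by ONE-Glo luminescence after 30 min at room temperature; inhibitors suppress the signal.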

[2] = biological target: ATPase family AAA domain-containing protein 5 (Homo sapiens) (UniProt Q96QE3); assay: qHTS screen for small molecules that inhibit ELG1-dependent DNA repair in human embryonic kidney (HEK293T) cells expressing luciferase-tagged ELG1: Hit Confirmation using MMS Stimulated ELG1 (AID 624249); details: HEK293T luciferase-tagged ELG1 level; series mostly up to 46.1 µM; also: nearly all actives have a fitted effect of over 60% in size
Outline: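 MMS-stimulated (10 µM final) ELG1-luc HEK293T cells; compound added ~5 h after plating at 2,000 cells/well; Amplight luminescence after 16 h; lower signal = inhibition.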

[3] = qHTS screen for small molecules that inhibit ELG1-dependent DNA repair: Hit Confirmation with 5FU Viability (AID 624250); details: cell viability with 5-FU; series mostly up to 46.1 µM;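 also: viability measured 16 h after compound addition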
Outline: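 HEK293T ELG1-luc; cpd + 5-fluorouridine (10 µM final) added ~5 h post-seeding; 16 h incubation; CellTiter-Glo viability readout.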

[4] = qHTS screen for small molecules that inhibit ELG1-dependent DNA repair: Hit Confirmation with MMS Viability (AID 624251); details: Cell viability with MMS; series mostly up to 46.1 µM;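 also: viability read 16 h after compound addition; nearly all actives have a fitted effect of over 60% in size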
Outline: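 Sixteen hours of compound exposure with MMS at 10 µM final preceded a CellTiter-Glo viability readout in ELG1-luciferase HEK293T cells, which were dosed about 5 h after seeding.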
Potency is read from the fitted curve at half-maximal effect; tags tell the direction and shape of the fitted curve.

SMILES | Potency [1] | Potency [2] | Potency [3] | Potency [4]
CCCCc1ccc(S(=O)(=O)NC2CCS(=O)(=O)C2)cc1 (stereo unspecified) | inactive | active: 11.2 µM |  | 
CN=C1SC(CC(=O)Nc2ccccc2F)C(=O)N1/N=C/c1ccc(O)c(OC)c1 (stereo unspecified) | active: 14.1 µM | inactive | inconclusive [rising, partial curve] | 
O=C(Cn1cnc2cc([N+](=O)[O-])ccc2c1=O)Nc1cccc(S(=O)(=O)N2CCOCC2)c1 | inconclusive [inhibitor, full curve] | inactive |  | 
O=C(Nc1ccc(F)cc1)N(CCCN1CCOCC1)Cc1cc2cc3c(cc2[nH]c1=O)OCO3 | inconclusive [inhibitor, partial curve, poor fit] | inactive | inactive | 
CCc1cc(=O)oc2c3c(cc(OCC(=O)NCc4cccnc4)c12)OC(C)(C)CC3 | inconclusive [inhibitor, partial curve] | inactive |  | 
NC(=O)C1CCN(c2ccc(S(=O)(=O)N3CCC(Cc4ccccc4)CC3)cn2)CC1 | inactive |  |  | 
COc1ccc(CC(=O)Nc2cc(S(=O)(=O)N3CCCCC3)ccc2C)cc1OC | inconclusive [inhibitor, full curve] |  |  | 
CC(=O)c1ccc(-n2c(C)c(C(C)=O)c3cc(O)ccc32)cc1 | inconclusive [inhibitor, full curve] | inactive |  | 
O=C(O)c1cccc(Nc2nc(N3CCOCC3)nc(N3CCOCC3)n2)c1 | inactive |  |  | 
Cc1cc(NC(=O)c2cnn3c(C(F)F)cc(C4CC4)nc23)no1 | inconclusive [inhibitor, partial curve] | inactive |  | 
CCN(CC)Cc1c(O)ccc2c([N+](=O)[O-])c(C)n(-c3ccc(OC)cc3)c12 | active: 3.97 µM | inconclusive [inhibitor, full curve, poor fit] |  | 
Cn1c(=O)c2c(nc(NC(Cc3ccccc3)C(=O)O)n2Cc2ccccc2)n(C)c1=O (stereo unspecified) | inconclusive [inhibitor, partial curve, poor fit] | inactive |  | 
COC(=O)Cn1c2[n+](c3ccccc31)CC(O)CS2 (stereo unspecified) | inactive | inactive |  | 
CCc1nc(CN2CCN(c3ccc(C(F)(F)F)cn3)CC2)c(C)[nH]1 | inconclusive [inhibitor, partial curve, poor fit] |  |  | 
CCOC(=O)c1c(NC(=O)Cn2cc([N+](=O)[O-])cn2)sc2c1CCC2 | inactive |  |  | 
COc1cc(CC2COC(=O)C2(O)Cc2ccc(O)c(OC)c2)ccc1O (stereo unspecified) | inconclusive [inhibitor, partial curve] |  |  | 
C=CCCc1ccc(C#N)c(SCc2c(C(=O)OCC)c3cc(OC(C)=O)c(Br)cc3n2C)n1 | inconclusive [inhibitor, full curve, poor fit] | active: 2.81 µM |  | 
CCOC(=O)CCSc1nc(N2CCOCC2)c2c(c1C#N)CC(C)(C)OC2 | active: 4.45 µM | inactive | inconclusive [rising, full curve] | 
CCc1ccccc1NC(=O)CN1CCN(CC(=O)Nc2cc(C)ccc2OC)CC1 | inconclusive [inhibitor, full curve] | active: 2.23 µM |  | 
COCCNC(=O)c1cn(C)c2ccc(S(=O)(=O)N3CCCCC3)cc2c1=O | inconclusive [inhibitor, partial curve, poor fit] | inconclusive [inhibitor, partial curve, poor fit] | inactive | 
Nc1cc(=O)[nH]c(SCc2ccc(Cl)cc2Cl)n1 | inactive | active: 2.81 µM | inactive | 
Cc1ccc(Cn2ncc3c(N4CCN(CCc5ccccc5)CC4)ncnc32)cc1 | inconclusive [inhibitor, partial curve] | active: 3.53 µM |  | 
C=CC[C@@H](CC(=O)NCCO)C(=O)NC[C@H](OC(=O)[C@@H](CC=C)Cc1ccc(F)cc1)c1ccccc1 | inconclusive [inhibitor, partial curve] | active: 14.1 µM | inconclusive [rising, partial curve, poor fit] | 
CN1CCN(c2nc(-c3ccncc3)nc3ccccc23)CC1 | inconclusive [inhibitor, single point] | inconclusive [inhibitor, partial curve, poor fit] |  | 
c1ccc(CC2CCN(c3ncnc4sccc34)CC2)cc1 | inactive |  |  | 

SMILES | Potency [1] | Potency [2] | Potency [3] | Potency [4]
CC12CCC(C(=O)N3CCN(c4ncccn4)CC3)(c3nc4ccccc4nc31)C2(C)C (stereo unspecified) | active: 7.91 µM | inconclusive [inhibitor, partial curve] | inconclusive [rising, partial curve, poor fit] | 
CCCn1c(N2CCN(CC(=O)c3c(C)n(C)c4ccc(OC)cc34)CC2)nc2c1c(=O)[nH]c(=O)n2C | active: 3.54 µM | inconclusive [inhibitor, full curve, poor fit] |  | 
COc1ccc(C(=O)Nc2cnn(Cc3c(F)cccc3Cl)c2)cc1OC | inactive | inactive | inconclusive [rising, partial curve, poor fit] | 
CCc1cccc(NC(=O)Cn2cc(C=O)c3ccccc32)c1 | inconclusive [inhibitor, partial curve, poor fit] |  |  | 
CN(CCCC(=O)Nc1ccncc1)S(=O)(=O)c1ccc(Cl)cc1 | inactive |  |  | 
C=CCc1c(OC(C)=O)c2ccccc2n(C)c1=O | inconclusive [inhibitor, partial curve] |  |  | 
CCc1ccc2nc(SCC(=O)Nc3ccccc3N3CCOCC3)c(C#N)cc2c1 | inconclusive [inhibitor, partial curve] |  |  | 
CC(NC(=O)C1CCCC1)C1CC2CCC1C2 (stereo unspecified) | inactive | inconclusive [inhibitor, partial curve] | inactive | 
O=C(COc1ccc(C(=O)NCC2CCCO2)cc1)Nc1cccc(C(F)(F)F)c1 (stereo unspecified) | inconclusive [inhibitor, partial curve] | inconclusive [inhibitor, partial curve, poor fit] |  | inconclusive [cytotoxic, partial curve, poor fit]
COc1ccc(NS(=O)(=O)c2ccc(Oc3c(C#N)cccc3C#N)cc2)cc1 | inconclusive [inhibitor, partial curve] |  | inactive | 
Cc1cc(C(=O)COc2ccccc2C(N)=O)c(C)n1CC1CCCO1 (stereo unspecified) | inconclusive [inhibitor, partial curve] |  | inactive | 
CC(=O)n1cc([C@@H]2C=C(C(=O)N3CCN(Cc4ccc5c(c4)OCO5)CC3)O[C@H](OCCCCO)C2)c2ccccc21 | inconclusive [inhibitor, full curve, poor fit] |  | inactive | 
COc1ccc2ccccc2c1/C=N/NC(=S)Nc1cc(S(=O)(=O)N2CCOCC2)ccc1N1CCOCC1 | inconclusive [inhibitor, full curve] | inactive | inconclusive [rising, full curve] | inconclusive [rising, partial curve, poor fit]
O=C(c1nc2nc(-c3ccccc3)cc(C(F)(F)F)n2n1)N1CCCCC1 | inactive |  | inactive | 
O=C(CSc1nc2ccc(NC(=O)CSc3nnnn3Cc3ccccc3)cc2s1)Nc1ccccc1 | inconclusive [inhibitor, full curve] |  | inactive | 
Cn1c(=O)c2c(ncn2CC(=O)OCCCC(=O)c2ccc(Br)cc2)n(C)c1=O | inconclusive [inhibitor, single point] |  | inactive | 
Cc1cc(C)cc(NC(=O)N2CCCC2C(=O)Nc2ccc(-n3cnnn3)cc2)c1 (stereo unspecified) | inconclusive [inhibitor, partial curve] | inactive |  | inactive
O=C(C1CCCN(S(=O)(=O)c2ccccc2)C1)N1CCN(c2ccc(F)cc2)CC1 (stereo unspecified) | inconclusive [inhibitor, partial curve] |  | inactive | 
Cc1sc2ncnc(NC3CCN(Cc4ccccc4)CC3)c2c1C | inconclusive [inhibitor, partial curve] |  | inactive | 
Cc1[nH]n(-c2nc(-c3ccc(Cl)cc3)cs2)c(=O)c1N=Nc1ccc(O)cc1 | active: 15.8 µM | active: 15.8 µM | inconclusive [cytotoxic, single point] | 
CCOc1cc(/C=N\Nc2nc(Nc3ccccc3)nc(N3CCOCC3)n2)ccc1OC(=O)c1ccco1 | active: 1.58 µM | inconclusive [inhibitor, partial curve, poor fit] |  | inconclusive [cytotoxic, partial curve, poor fit]
CCN1CCN(c2ccc(Nc3ccnc4ccccc34)cc2)CC1 | inconclusive [inhibitor, full curve] | active: 17.7 µM | inactive | inconclusive [cytotoxic, single point]
Fc1ccccc1-c1csc(=Nc2cccnc2)n1CC1CCCO1 (stereo unspecified) | inconclusive [inhibitor, partial curve, poor fit] | active: 22.3 µM |  | active: 15.8 µM
CC1CN(C(=O)COC(=O)/C=C/c2cccc([N+](=O)[O-])c2)CC(C)O1 (stereo unspecified) | inactive | inconclusive [inhibitor, partial curve, poor fit] | inactive | 

Reference: PubChem BioAssay (NCATS)
